Laboratory results: publication PMC10445738
No constants are given. Whether binding was seen depends on the method and setting. In cells and extracts the contact can be indirect. Some binding calls cover weakened binding; strength is not graded here. Each block holds one molecule with its values, some of them ahead of it.

Sequences of proteins named here, by UniProt entry; tags and fusion partners are left off. A change or cut given only in a name is not applied to a line headed by its entry. Residues count along the entry.
UniProt Q96BN8: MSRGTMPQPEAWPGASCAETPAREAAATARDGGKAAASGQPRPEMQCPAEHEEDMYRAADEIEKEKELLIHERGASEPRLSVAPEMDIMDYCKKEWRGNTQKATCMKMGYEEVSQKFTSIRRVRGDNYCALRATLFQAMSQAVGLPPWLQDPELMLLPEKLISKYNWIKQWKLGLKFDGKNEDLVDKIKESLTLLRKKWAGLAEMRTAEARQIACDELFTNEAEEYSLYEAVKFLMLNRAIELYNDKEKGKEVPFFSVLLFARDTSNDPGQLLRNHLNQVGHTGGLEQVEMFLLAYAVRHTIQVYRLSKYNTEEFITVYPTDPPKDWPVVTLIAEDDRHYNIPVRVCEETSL
HA-OTULIN^C105X: residues 1-105 of Q96BN8
HA-OTULIN^Δ54: residues 55-352 of Q96BN8
UniProt Q14160: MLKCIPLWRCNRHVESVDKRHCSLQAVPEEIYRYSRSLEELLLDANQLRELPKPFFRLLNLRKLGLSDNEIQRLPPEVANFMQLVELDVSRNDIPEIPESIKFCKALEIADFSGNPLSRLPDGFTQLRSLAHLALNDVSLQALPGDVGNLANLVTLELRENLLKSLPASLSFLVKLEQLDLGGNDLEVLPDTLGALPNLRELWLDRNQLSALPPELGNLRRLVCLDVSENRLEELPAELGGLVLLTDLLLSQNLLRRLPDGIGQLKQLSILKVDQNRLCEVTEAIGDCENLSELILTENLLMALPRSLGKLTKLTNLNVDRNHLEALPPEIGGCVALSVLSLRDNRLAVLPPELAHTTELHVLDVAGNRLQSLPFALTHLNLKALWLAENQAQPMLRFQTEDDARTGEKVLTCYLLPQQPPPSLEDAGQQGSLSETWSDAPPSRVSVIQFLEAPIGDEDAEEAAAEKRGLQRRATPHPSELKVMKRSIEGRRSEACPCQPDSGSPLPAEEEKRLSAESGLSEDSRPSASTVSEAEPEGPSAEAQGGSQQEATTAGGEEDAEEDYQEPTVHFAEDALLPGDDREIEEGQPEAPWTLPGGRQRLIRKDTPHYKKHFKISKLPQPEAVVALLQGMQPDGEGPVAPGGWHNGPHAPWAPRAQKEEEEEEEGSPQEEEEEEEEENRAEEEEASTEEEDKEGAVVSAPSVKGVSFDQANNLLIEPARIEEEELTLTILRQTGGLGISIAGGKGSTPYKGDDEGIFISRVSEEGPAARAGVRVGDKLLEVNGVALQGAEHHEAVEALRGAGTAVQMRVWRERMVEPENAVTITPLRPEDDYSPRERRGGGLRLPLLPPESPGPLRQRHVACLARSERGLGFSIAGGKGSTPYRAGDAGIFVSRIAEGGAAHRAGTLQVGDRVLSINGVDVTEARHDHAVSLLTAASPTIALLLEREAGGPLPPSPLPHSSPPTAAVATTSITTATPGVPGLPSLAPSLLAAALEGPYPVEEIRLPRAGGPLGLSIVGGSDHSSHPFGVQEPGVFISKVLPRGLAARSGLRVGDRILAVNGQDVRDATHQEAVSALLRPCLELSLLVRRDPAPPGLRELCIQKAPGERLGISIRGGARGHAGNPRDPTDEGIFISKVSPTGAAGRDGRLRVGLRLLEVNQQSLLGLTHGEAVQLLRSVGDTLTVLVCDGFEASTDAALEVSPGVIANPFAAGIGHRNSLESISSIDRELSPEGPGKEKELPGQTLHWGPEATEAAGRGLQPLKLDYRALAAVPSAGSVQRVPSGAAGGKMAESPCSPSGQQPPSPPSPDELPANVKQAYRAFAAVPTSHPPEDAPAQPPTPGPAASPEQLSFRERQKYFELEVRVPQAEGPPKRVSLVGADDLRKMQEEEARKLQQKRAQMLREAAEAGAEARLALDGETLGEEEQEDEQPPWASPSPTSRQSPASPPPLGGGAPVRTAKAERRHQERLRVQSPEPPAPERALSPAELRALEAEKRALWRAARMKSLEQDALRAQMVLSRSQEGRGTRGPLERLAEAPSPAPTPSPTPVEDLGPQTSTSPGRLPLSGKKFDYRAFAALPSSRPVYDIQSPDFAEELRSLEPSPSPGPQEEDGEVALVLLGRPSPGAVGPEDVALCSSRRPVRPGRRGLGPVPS

What was measured:
HA-OTULIN (WT) = HA-OTULIN (WT) (UniProt Q96BN8); test: co-IP; HA-OTULIN constructs and FLAG-SCRIB transiently co-expressed in HEK293T; lysis in 50 mM Tris pH 7.4, 100 mM EDTA, 150 mM NaCl, 0.5% Triton X-100; IP with anti-FLAG or anti-HA antibody and protein A/G agarose, washes with 500 mM NaCl; immunoblot
HA-OTULIN^C105X = HA-OTULIN^C105X (UniProt Q96BN8); test: as above
HA-OTULIN^Δ54 = HA-OTULIN^Δ54 (UniProt Q96BN8); test: as above
FLAG-SCRIB = FLAG-SCRIB (UniProt Q14160); test: as above
[1] = target: FLAG-OTULIN (transiently expressed) (UniProt Q96BN8); test: co-IP; reciprocal co-immunoprecipitation of FLAG-OTULIN and Dvl2 constructs from transfected HEK293T cells; lysis buffer as in a3 with 4 μM MG132 added; immunoblot

binding (HA-OTULIN (WT)): binds | binding (HA-OTULIN^C105X): no binding | binding (HA-OTULIN^Δ54): binds
Molecule: FLAG-SCRIB (from UniProt Q14160 1-1655)

binding (FLAG-SCRIB): binds
Molecule: HA-OTULIN (WT) (from UniProt Q96BN8 1-352) (enzyme)

binding (FLAG-SCRIB): binds
Molecule: HA-OTULIN^C129S (from UniProt Q96BN8 1-352) (enzyme)

binding (FLAG-SCRIB): binds
Molecule: HA-OTULIN^W96R (from UniProt Q96BN8 1-352) (enzyme)

binding [1]: binds
B1: Dishevelled 2 (Dvl2) (protein, UniProt Q60838 1-736)
chain: MAGSSAGGGGVGETKVIYHLDEEETPYLVKIPVPAERITLGDFKSVLQRPAGAKYFFKSMDQDFGVVKEEISDDNARLPCFNGRVVSWLVSSDTPQPEVAPPAHESRTELVPPPPPLPPLPPERTSGIGDSRPPSFHPNVSSSHENLEPETETESVVSLRRDRPRRRDSSEHGAGGHRPGGPSRLERHLAGYESSSTLMTSELESTSLGDSDEDDTMSRFSSSTEQSSASRLLKRHRRRRKQRPPRMERTSSFSSVTDSTMSLNIITVTLNMEKYNFLGISIVGQSNERGDGGIYIGSIMKGGAVAADGRIEPGDMLLQVNDMNFENMSNDDAVRVLRDIVHKPGPIVLTVAKCWDPSPQAYFTLPRNEPIQPIDPAAWVSHSAALTGAFPAYPGSSSMSTITSGSSLPDGCEGRGLSVHMDMASVTKAMAAPESGLEVRDRMWLKITIPNAFLGSDVVDWLYHHVEGFPERREARKYASGLLKAGLIRHTVNKITFSEQCYYVFGDLSGGCESYLVNLSLNDNDGSSGASDQDTLAPLPGATPWPLLPTFSYQYPAPHPYSPQPPPYHELSSYTYGGGSASSQHSEGSRSSGSTRSDGGAGRTGRPEERAPESKSGSGSESELSSRGGSLRRGGEPGGTGDGGPPPSRGSTGAPPNLRALPGLHPYGAPSGMALPYNPMMVVMMPPPPPPVSTAVQPPGAPPVRDLGSVPPELTASRQSFHMAMGNPSEFFVDVM
